Assay results reported in the supplement of paper PMC4604168 (melanoma cell lines).
The other results are listed elsewhere or left out. Most values come without repeats; read them as rough.

Legend:
Experiment in all cases: cell count relative to DMSO control; melanoma cells; higher = more viable cells
Conditions in all cases: library dose: standard library concentration; 72 h
G361 = system: G361
IPC-298 = system: IPC-298
IST-MEL1 = system: IST-MEL1
LB2518-MEL = system: LB2518-MEL
LOXIMVI = system: LOXIMVI
MEL-HO = system: MEL-HO
MZ2-MEL = system: MZ2-MEL
MeWo = system: MeWo
RPMI7951 = system: RPMI7951
RVH-421 = system: RVH-421
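Also: cells treated in 1,536-well plates, then fixed and DAPI-stained, with nuclei counted from automated high-throughput microscope images.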

Row | Structure (SMILES) | cell count (G361) | cell count (IPC-298) | cell count (IST-MEL1) | cell count (LB2518-MEL) | cell count (LOXIMVI) | cell count (MEL-HO) | cell count (MZ2-MEL) | cell count (MeWo) | cell count (RPMI7951) | cell count (RVH-421)
1 | CC(C)C[C@H](NC(=O)[C@H](Cc1ccccc1)NC(=O)c1cnccn1)B(O)O [Bortezomib] + COc1cc(Nc2ncc(F)c(Nc3ccc4c(n3)NC(=O)C(C)(C)O4)n2)cc(OC)c1OC [Tamatinib] (first compound 0.005 µM, partner dose 2 µM) | 0.377% | 10.6% | 9.51% | 2.7% | 13.6% | 33% | 6.64% | 14% | 3.42% | 3.19%
2 | Cc1cn(-c2cc(NC(=O)c3ccc(C)c(Nc4nccc(-c5cccnc5)n4)c3)cc(C(F)(F)F)c2)cn1 [nilotinib] + COc1cc(N2CCC(N3CCN(C)CC3)CC2)ccc1Nc1ncc(Cl)c(Nc2ccccc2S(=O)(=O)C(C)C)n1 [NVP-TAE684] (first compound 1 µM, partner dose 0.4 µM) | 81.8% | 82.5% | 85.8% | 89.3% | 99.8% | 82.6% | 78.7% | 76.4% | 84.7% | 74.8%
3 | CC(C)C[C@H](NC(=O)[C@H](Cc1ccccc1)NC(=O)c1cnccn1)B(O)O [Bortezomib] + COc1ccc(-c2ccc3c(N4CCOCC4)nc(N4C[C@@H](C)O[C@@H](C)C4)nc3n2)cc1CO [KU0063794] (first compound 0.005 µM, partner dose 0.1 µM) | 0.87% | 16% | 21.9% | 7.31% | 26.6% | 41.5% | 7.1% | 15.2% | 10.3% | 7.75%
4 | Cc1cc(Nc2cc(N3CCN(C)CC3)nc(/C=C/c3ccccc3)n2)n[nH]1 + Cc1cc([N+](=O)[O-])ccc1NS(=O)(=O)c1cc(Cl)ccc1Cl [FH535] (first compound 0.2 µM, partner dose 5 µM) | 43.9% | 53.8% | 51.9% | 71.4% | 56.1% | 43.2% | 59.6% | 55.3% | 66.1% | 51.8%
5 | Cc1cn(-c2cc(NC(=O)c3ccc(C)c(Nc4nccc(-c5cccnc5)n4)c3)cc(C(F)(F)F)c2)cn1 [nilotinib] + CC(C)C[C@H](NC(=O)[C@H](Cc1ccccc1)NC(=O)c1cnccn1)B(O)O [Bortezomib] (first compound 1 µM, partner dose 0.005 µM) | 1.26% | 7.51% | 5.78% | 7.25% | 23.5% | 34.9% | 6.62% | 10.9% | 2.13% | 11.4%
6 | Cc1cc(Nc2cc(N3CCN(C)CC3)nc(/C=C/c3ccccc3)n2)n[nH]1 + O=C(O)c1ccc2c(c1)nc(Nc1cccc(Cl)c1)c1ccncc12 [CX4945] (first compound 0.2 µM, partner dose 2 µM) | 72.3% | 71.6% | 77.8% | 66.4% | 39.7% | 58.4% | 77.1% | 90.5% | 50.2% | 70.3%
7 | COc1ccc(C2=N[C@@H](c3ccc(Cl)cc3)[C@@H](c3ccc(Cl)cc3)N2C(=O)N2CCNC(=O)C2)c(OC(C)C)c1 [Nutlin-3] + Clc1ccc(Nc2nnc(Cc3ccncc3)c3ccccc23)cc1 [vatalanib] (first compound 0.5 µM, partner dose 10 µM) | 52.8% | 67.5% | 77.2% | 56.3% | 36.9% | 55.4% | 66.8% | 68.9% | 71.8% | 48.3%
8 | Cc1cn(-c2cc(NC(=O)c3ccc(C)c(Nc4nccc(-c5cccnc5)n4)c3)cc(C(F)(F)F)c2)cn1 [nilotinib] + C#Cc1cccc(Nc2ncnc3cc(OCCOC)c(OCCOC)cc23)c1 [erlotinib] (first compound 1 µM, partner dose 4 µM) | 72.8% | 68.9% | 75.4% | 70.2% | 77.6% | 72.9% | 64.3% | 76.9% | 52.6% | 83.3%
9 | Cc1cn(-c2cc(NC(=O)c3ccc(C)c(Nc4nccc(-c5cccnc5)n4)c3)cc(C(F)(F)F)c2)cn1 [nilotinib] + COc1cc2c(Oc3ccc4[nH]c(C)cc4c3F)ncnc2cc1OCCCN1CCCC1 [cediranib] (first compound 1 µM, partner dose 2 µM) | 91.6% | 128% | 111% | 102% | 70.9% | 120% | 120% | 102% | 55.9% | 86.6%
10 | Cn1c(=O)n(-c2ccc(C(C)(C)C#N)cc2)c2c3cc(-c4cnc5ccccc5c4)ccc3ncc21 + Cc1nc(Nc2ncc(C(=O)Nc3c(C)cccc3Cl)s2)cc(N2CCN(CCO)CC2)n1 [dasatanib] (first compound 0.02 µM, partner dose 0.02 µM) | 72.4% | 87.1% | 58.3% | 81% | 19% | 60.7% | 51.7% | 59.5% | 35.2% | 78.5%
11 | Cn1c(=O)n(-c2ccc(C(C)(C)C#N)cc2)c2c3cc(-c4cnc5ccccc5c4)ccc3ncc21 + C[C@@H](Oc1cc(-c2cnn(C3CCNCC3)c2)cnc1N)c1c(Cl)ccc(F)c1Cl [Crizotinib] (first compound 0.02 µM, partner dose 1 µM) | 73.3% | 72.9% | 71.9% | 70.4% | 94.1% | 74.7% | 73.9% | 75.1% | 87.1% | 74.4%
12 | COc1ccc(C2=N[C@@H](c3ccc(Cl)cc3)[C@@H](c3ccc(Cl)cc3)N2C(=O)N2CCNC(=O)C2)c(OC(C)C)c1 [Nutlin-3] + Nc1ncn([C@H]2C[C@H](O)[C@@H](CO)O2)c(=O)n1 [decitabine] (first compound 0.5 µM, partner dose 0.5 µM) | 64.2% | 60.9% | 74.6% | 73.4% | 49.5% | 71.3% | 76.7% | 75.2% | 79.1% | 57.3%
13 | Cc1cc(Nc2cc(N3CCN(C)CC3)nc(/C=C/c3ccccc3)n2)n[nH]1 + Nc1ccn([C@@H]2O[C@H](CO)[C@@H](O)C2(F)F)c(=O)n1 [gemcitabine] (first compound 0.2 µM, partner dose 0.002 µM) | 45.5% | 53% | 53.4% | 71% | 69.1% | 80.1% | 90.6% | 51.8% | 50.1% | 58.6%
14 | Cn1c(=O)n(-c2ccc(C(C)(C)C#N)cc2)c2c3cc(-c4cnc5ccccc5c4)ccc3ncc21 + C[C@]1(c2nc3c(C(N)=O)cccc3[nH]2)CCCN1 [Veliparib] (first compound 0.02 µM, partner dose 7 µM) | 50.4% | 65.4% | 74.6% | 90.5% | 70.5% | 66.5% | 67.9% | 61.2% | 69.1% | 83.6%
15 | Cc1cc(Nc2cc(N3CCN(C)CC3)nc(/C=C/c3ccccc3)n2)n[nH]1 + C[C@@H](Oc1cc(-c2cnn(C3CCNCC3)c2)cnc1N)c1c(Cl)ccc(F)c1Cl [Crizotinib] (first compound 0.2 µM, partner dose 1 µM) | 88.6% | 85.3% | 88.9% | 69.5% | 86.3% | 68.7% | 70.5% | 58.9% | 54.9% | 107%
16 | Cc1cc(Nc2cc(N3CCN(C)CC3)nc(/C=C/c3ccccc3)n2)n[nH]1 + O=C(CCCCCCC(=O)Nc1ccccc1)NO [vorinostat] (first compound 0.2 µM, partner dose 0.4 µM) | 60.9% | 84.4% | 73.4% | 55.9% | 62.4% | 82.5% | 98.7% | 72% | 51.2% | 73.4%
17 | CC(C)C[C@H](NC(=O)[C@H](Cc1ccccc1)NC(=O)c1cnccn1)B(O)O [Bortezomib] + Cn1cc(/C=C2\C(=O)Nc3cccnc32)c2ccccc21 [GW441756] (first compound 0.005 µM, partner dose 2 µM) | 0.657% | 3.38% | 8.81% | 1.77% | 18.2% | 25.8% | 4.25% | 8.03% | 5.35% | 16.3%
18 | Cc1cn(-c2cc(NC(=O)c3ccc(C)c(Nc4nccc(-c5cccnc5)n4)c3)cc(C(F)(F)F)c2)cn1 [nilotinib] + COc1ccc(COc2ccc(Cc3cnc(N)nc3N)cc2OC)cc1 [GW2580] (first compound 1 µM, partner dose 5 µM) | 78.1% | 94.8% | 126% | 87.8% | 97.3% | 90.1% | 78.4% | 81.3% | 80.4% | 86%
19 | Cc1cn(-c2cc(NC(=O)c3ccc(C)c(Nc4nccc(-c5cccnc5)n4)c3)cc(C(F)(F)F)c2)cn1 [nilotinib] + O=C(CCCCCCC(=O)Nc1ccccc1)NO [vorinostat] (first compound 1 µM, partner dose 0.4 µM) | 66.4% | 103% | 107% | 82.9% | 93% | 93.1% | 106% | 81% | 69.7% | 88.8%
20 | COc1ccc(C2=N[C@@H](c3ccc(Cl)cc3)[C@@H](c3ccc(Cl)cc3)N2C(=O)N2CCNC(=O)C2)c(OC(C)C)c1 [Nutlin-3] + CO[C@H]1C[C@@H]2CC[C@@H](C)[C@@](O)(O2)C(=O)C(=O)N2CCCC[C@H]2C(=O)O[C@H]([C@H](C)C[C@@H]2CC[C@@H](OCCO)[C@H](OC)C2)CC(=O)[C@H](C)/C=C(\C)[C@@H](O)[C@@H](OC)C(=O)[C@H](C)C[C@H](C)/C=C/C=C/C=C/1C [everolimus] (first compound 0.5 µM, partner dose 0.1 µM) | 54.4% | 69.5% | 83.4% | 59.2% | 70% | 61.4% | 66% | 59.6% | 66.3% | 152%
